Test results from paper PMC6919601, “Identification of Plasmodium dipeptidyl aminopeptidase allosteric inhibitors by high throughput screening” (PLoS ONE, 2019).
Among all 110,000 compounds or so, about 230 (0.21%) showed an effect of 50% or more. The list shows a part of the results.

Target: DPAP1 (Plasmodium falciparum, UniProt Q8IIJ9)
Assay: primary screen, percent inhibition; read by cleavage of a fluorogenic dipeptide substrate; higher = more effect of the substance
Parameters: species or system P. falciparum D10 trophozoite lysates; single well
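Further: 30 min substrate incubation versus DMSO and 10 µM JCP410 controls.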

DPAP1, sequence (Q8IIJ9 whole entry, looked up): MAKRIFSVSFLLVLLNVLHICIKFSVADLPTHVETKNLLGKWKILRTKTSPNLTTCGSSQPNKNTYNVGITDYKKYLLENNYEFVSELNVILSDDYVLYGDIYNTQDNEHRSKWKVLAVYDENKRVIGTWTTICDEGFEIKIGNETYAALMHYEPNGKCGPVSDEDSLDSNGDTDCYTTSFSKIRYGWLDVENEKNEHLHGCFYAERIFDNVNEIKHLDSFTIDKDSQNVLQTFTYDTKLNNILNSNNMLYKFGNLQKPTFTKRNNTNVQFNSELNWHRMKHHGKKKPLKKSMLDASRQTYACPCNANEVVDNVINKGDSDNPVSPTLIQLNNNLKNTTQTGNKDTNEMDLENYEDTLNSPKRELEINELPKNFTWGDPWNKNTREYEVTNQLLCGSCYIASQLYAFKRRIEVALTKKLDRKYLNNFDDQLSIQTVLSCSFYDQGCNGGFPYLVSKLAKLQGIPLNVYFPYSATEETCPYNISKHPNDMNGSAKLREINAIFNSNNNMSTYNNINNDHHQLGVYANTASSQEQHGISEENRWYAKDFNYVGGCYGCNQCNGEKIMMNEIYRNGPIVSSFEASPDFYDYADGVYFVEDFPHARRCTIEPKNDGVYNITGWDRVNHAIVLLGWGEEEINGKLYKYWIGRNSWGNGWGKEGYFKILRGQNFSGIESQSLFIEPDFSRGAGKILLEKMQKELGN

SMILES	% Inhibition @ 10 uM [%]
COc1ccc2ccccc2c1/C=C1\C=C(c2ccc(C)cc2)OC1=O	3.72
COC(=O)c1sccc1S(=O)(=O)N1CCN(c2ncccn2)CC1	-4.94
CN(C)C1=C2CCN(Cc3ccccc3)C2C(C#N)C(=O)N1 (centres unmarked)	3.47
CCc1ccc(N2C(=O)C(Cl)=C(Nc3ccc(OC)cc3)C2=O)cc1	-2.88
O=C(NC1CCCCCCC1)C(NS(=O)(=O)c1cccc2nsnc12)c1ccccc1 (centres unmarked)	2
CO/C(O)=C1/C(C)=NC2=C(C(=O)CCC2)C1c1ccc(SC)cc1 (centres unmarked)	-2.48
COC(=O)c1ccc(/C=C2/C=C(c3ccc(OC)cc3)OC2=O)cc1	-5.62
COc1cccc(CN2CC(C)OC(C)C2)c1 (centres unmarked)	5.03
CCOC(=O)N1CCN(c2nc(-c3ccccc3F)nc3ccccc23)CC1	3.45
Cc1ccc(C(=O)Nc2nnc(S(=O)(=O)N3CCC(C)CC3)s2)cc1	1.68
CCN(C(=O)c1ccccc1Br)c1nc(-c2ccccc2)cs1	-6.6
CCSc1c(C(=O)NCc2ccccc2)ccc2c1C(=O)c1ccccc1C2=O	-3.04
COc1cc(C2c3c(-c4cc(C)ccc4O)n[nH]c3C(=O)N2CCO)cc(OC)c1OC (centres unmarked)	5.35
COc1ccc(C2CC(=O)c3cnc(NC(=O)c4ccccc4)nc3C2)cc1 (centres unmarked)	11.6
COC1=C(Cc2ccccc2)C(=O)OC2C=CC=CC12 (centres unmarked)	-0.711
Cc1ccccc1C(=O)N(Cc1ccc(Cl)cc1)Cc1ccco1	-0.666
O=S1(=O)C(/C=N/C2CCCCCC2)=C(O)c2sccc2N1Cc1ccccc1	-2.16
CCc1nnc(NC(=O)CCNS(=O)(=O)c2cc(Br)cnc2N)s1	-4.69
O=C1CC(NC23CC4CC(CC(C4)C2)C3)C(=O)N1c1ccccc1Cl (centres unmarked)	-6.24
CC(C)Oc1ccc(C(=O)NCc2cccnc2)cc1	-0.473
Cc1nc2sc3c(N)ncnc3c2c(C)c1C	0.392
CC(C)(C)c1cc(S(N)(=O)=O)cc(C(C)(C)C)c1F	-1.42
Cc1cccc(NC(=O)c2ccc(S(=O)(=O)N3CCCCC3C)cc2)c1C (centres unmarked)	-7.62
Cc1cc(Cl)ccc1NC1=NS(=O)(=O)c2ccccc21	2.7
COc1cc(C(=O)N2CCN(C(=O)COc3ccc(C)cc3)CC2)cc(OC)c1OC	9.1

SMILES	% Inhibition @ 10 uM [%]
O=C(NCc1ccc2c(c1)OCO2)c1cc2c(=O)oc3ccccc3c2s1	4.33
COC(=O)c1c(NC(=O)CCCOc2ccc(C(C)(C)C)cc2)sc2c1CCC2	0.487
COc1ccccc1/C=C/C=c1\sc2nc(-c3cccc(C)c3)nn2c1=O	-2.98
Cc1[nH]c(-c2ccc(F)cc2)cc1C(=O)NCc1ccc2c(c1)OCO2	-1.26
CCOC(=O)c1c(N)sc2c1CCC2	11.6
CC(=O)c1c(C)n(Cc2ccccc2)c2ccc(O)cc12	-1.37
COC(=O)c1cc(S(=O)(=O)NC(C)c2ccccc2)cn1C (centres unmarked)	-8.56
O=C1N/C(=C/c2ccc(Br)cc2)C(O)=C1/C=N/Cc1ccccc1	0.317
Cc1cc(C(F)(F)F)nn1C(=O)c1cccnc1Cl	-2.9
CCOC(=O)C1=C(CS(=O)(=O)c2ccc(F)cc2)NC(=O)NC1c1ccc(O)c(O)c1 (centres unmarked)	-2.16
CC(C)c1ccc(NC(=O)CC2SC(N)=NC2=O)cc1 (centres unmarked)	-3.1
C=CCOc1ccc(/C=c2\sc3nc(-c4ccc(F)cc4)nn3c2=O)cc1	2.24
CCCCCP(=O)(O)c1ccccc1	2.76
COc1cc(CN2CCN(c3ccccc3C)CC2)cc(Br)c1O	-6.47
O=C(CC1(O)C(=O)Nc2ccccc21)c1ccc2ccccc2c1 (centres unmarked)	-3.48
CCCCC(=O)NC1(C(F)(F)F)C(=O)Nc2c1c(=O)[nH]c(=O)n2CCc1ccc(OC)c(OC)c1 (centres unmarked)	5.12
Cc1c(Br)c(C(F)(F)F)nn1CC(=O)NCCc1ccccc1	-2.85
CC1=CC(C)C2COC(c3ccc4c(c3)OCO4)C1C2C (centres unmarked)	5.16
COc1cc(CNCc2ccccc2)ccc1Oc1nc2ccccc2n2cnnc12	3.93
CC(C)CNC(=O)CN(C1CCCCC1)S(C)(=O)=O	1.17
COc1cc(CN2CC(C)OC(C)C2)cc(OC)c1OC (centres unmarked)	7.2
Cc1nc2ccc(S(=O)(=O)N(C)CC(=O)NCc3ccc(F)cc3)cc2s1	7.31
C#CC12C(=O)N(C)C3C(CCO)C1C=CCC32 (centres unmarked)	3.8
CCOC(=O)N1CCC(NC(=O)C2CCN(S(=O)(=O)c3cccs3)CC2)CC1	-3.36
COc1ccc(N2CCN(CC(O)COc3ccc(Cl)c(C)c3)CC2)cc1 (centres unmarked)	-1.22
